Molecular target: T1, CXCR4 1-38 (sY21/12/7 P38) 1-38 (Homo sapiens, UniProt P61073)
T1 chain: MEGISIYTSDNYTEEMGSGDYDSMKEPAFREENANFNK
Assay: NMR

B1: SDF-1α (protein)
chain: not shown
**Q.** How did the Kd turn out when B1 was run?
**A.** The Kd was 200 nM.

Source: paper PMC2662774 (2008)
